Drawing on publication PMC4943851, this text covers binding for seven substances.

Chains of the proteins cited; added tags and fusions are not shown. Lines headed by an entry give the natural chain unless they say otherwise; changes in a name come on top. A line that says so, or that is headed by a name, gives the form on record, which may keep a tag or linker. Residues count along the entry.
UniProt Q00987: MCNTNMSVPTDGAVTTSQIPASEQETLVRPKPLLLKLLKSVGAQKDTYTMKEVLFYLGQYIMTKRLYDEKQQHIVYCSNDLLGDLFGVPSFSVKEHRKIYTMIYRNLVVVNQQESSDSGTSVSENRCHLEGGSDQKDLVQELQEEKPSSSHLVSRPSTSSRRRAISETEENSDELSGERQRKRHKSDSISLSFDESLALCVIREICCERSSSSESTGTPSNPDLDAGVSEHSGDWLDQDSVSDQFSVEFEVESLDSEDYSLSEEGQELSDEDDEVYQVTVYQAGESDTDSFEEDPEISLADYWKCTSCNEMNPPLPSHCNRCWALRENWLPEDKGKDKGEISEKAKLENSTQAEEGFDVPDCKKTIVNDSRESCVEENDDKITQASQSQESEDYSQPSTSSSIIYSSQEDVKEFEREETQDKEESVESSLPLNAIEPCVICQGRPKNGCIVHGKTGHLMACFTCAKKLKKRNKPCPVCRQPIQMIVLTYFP
V5-tagged MDM2 fragment aa 1-301: residues 1-301 of Q00987
V5-tagged MDM2 fragment aa 1-150: residues 1-150 of Q00987
V5-tagged MDM2 fragment aa 284-491: residues 284-491 of Q00987
UniProt P08138: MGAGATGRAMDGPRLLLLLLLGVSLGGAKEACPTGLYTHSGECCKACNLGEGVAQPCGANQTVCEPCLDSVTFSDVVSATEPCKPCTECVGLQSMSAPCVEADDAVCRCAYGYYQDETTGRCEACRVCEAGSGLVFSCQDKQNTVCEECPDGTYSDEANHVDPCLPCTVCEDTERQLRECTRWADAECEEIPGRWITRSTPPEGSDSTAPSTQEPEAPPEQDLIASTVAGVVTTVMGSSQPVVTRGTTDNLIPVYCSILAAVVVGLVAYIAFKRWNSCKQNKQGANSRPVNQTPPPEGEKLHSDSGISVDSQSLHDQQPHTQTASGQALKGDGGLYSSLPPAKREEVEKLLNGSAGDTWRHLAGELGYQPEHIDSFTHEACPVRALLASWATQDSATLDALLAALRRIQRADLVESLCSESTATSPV

Assay [1] addresses p53 (untagged, ectopic, in MEF p53-/-;Mdm2-/- cells) (UniProt P04637). The experiment in a line: co-IP; MEF p53-/-;Mdm2-/- cells transfected with plasmids encoding Myc-NGFR or p53, alone or together; immunoblot. In general terms: Immunoblotting shows a protein as a band on a membrane.
Assay [2] addresses GST-tagged p53 fragment aa 100-290 (UniProt P04637). In words: pull-down; 500 ng of GST-MDM2 fragments, GST-p53 fragments or GST only on glutathione-Sepharose 4B beads, incubated with cell lysates with mammalian-expressed Myc-NGFR at 4°C for 4 hr; washed three times with GST lysis buffer (50 mM Tris/HCl pH 8.0, 0.5% NP-40, 1 mM EDTA, 150 mM NaCl, 10% glycerol); immunoblot with anti-NGFR; only the target purified.

The target in assay [3] is GST-tagged full-length p53 (UniProt P04637). The assay is described as above.
Assay [4] deals with GST-tagged MDM2 fragment aa 284-491 (UniProt Q00987). Described as above.
The target in assay [5] is GST-tagged MDM2 fragment aa 1-301 (UniProt Q00987). Described as above.
In assay [6] the target is GST-tagged MDM2 fragment aa 1-150 (UniProt Q00987). The description is as above.
The target in assay [7] is p53 (untagged, ectopic, H1299) (UniProt P04637). In words: co-IP; H1299 cells transfected with the tagged plasmids; ~500 to 1000 ug of proteins incubated with the indicated antibody at 4°C for 4 hr or overnight, protein A or G beads, washed at least three times with lysis buffer; immunoblot.
Assay [8] concerns the target V5-tagged MDM2 fragment aa 1-150 (UniProt Q00987). Described as above.
The next assay deals with HA-MDM2 (UniProt Q00987). Described as above.
Assay [9] has as its target V5-tagged MDM2 fragment aa 284-491 (UniProt Q00987). The assay is described as above.
The target of another assay is Flag-p53 (UniProt P04637). The description is as above.
The target of assay [10] is flag-tagged p53 fragment aa 101-300 (UniProt P04637). Described as above.
The next assay addresses Flag-MDM2 (UniProt Q00987). The assay is described as above.
Assay [11] addresses V5-tagged MDM2 fragment aa 1-301 (UniProt Q00987). Described as above.
The target of another assay is V5-p53 (UniProt P04637). The assay is described as above.
Assay [12] deals with endogenous MDM2 (H460 cells) (human (endogenous in H460)) (UniProt Q00987). The experiment in a line: co-IP; nuclear fraction of H460 cells stably expressing NGFR; immunoblot.
Assay [13] addresses endogenous p53 (H460 cells) (human (endogenous in H460)) (UniProt P04637). The assay is described as above.
Assay [14] addresses endogenous p53 (SK-MEL-147 cells) (human (endogenous in SK-MEL-147)) (UniProt P04637). The experiment in a line: co-IP; nuclear fraction of SK-MEL-147 cells, endogenous proteins, reciprocal; immunoblot.
In assay [15] the target is endogenous MDM2 (SK-MEL-147 cells) (human (endogenous in SK-MEL-147)) (UniProt Q00987). Described as above.
Assay [16] addresses endogenous MDM2 (SK-N-SH cells) (human (endogenous in SK-N-SH)) (UniProt Q00987). The experiment in a line: co-IP; endogenous proteins of SK-N-SH cells treated with Doxorubicin for 12 hr and MG132 for 6 hr; immunoblot.
Assay [17] has as its target endogenous p53 (SK-N-SH cells) (human (endogenous in SK-N-SH)) (UniProt P04637). Described as above.

No constants are given. Whether binding was seen depends on the method and setting. In cells and extracts the contact can be indirect. Some binding calls cover weakened binding; strength is not graded here.

As to “Myc-NGFR (in MEF p53-/-;Mdm2-/- cells) (from UniProt P08138 29-427) (receptor)”, the binding result in assay [1] is “binds”.
On to “Myc-NGFR (nerve growth factor receptor) (from UniProt P08138 29-427)”, for which the binding entry is “binds” in [2]; “binds” in [3]; “binds” in assay [4]; “no binding” in [5]; “no binding” in [6]; “binds” in [7]. The binding result was “no binding” in assay [8]; “binds” with HA-MDM2; “binds” in assay [9]; “binds” with Flag-p53; “binds” in [10]; “binds” with Flag-MDM2. The binding result in assay [11] is on record as “no binding”.
On to “Myc-tagged NGFR fragment aa 1-272 (from UniProt P08138 29-272) (domain or fragment)”, for which the binding entry in the assay with V5-p53 and with Flag-MDM2 was “binds” throughout.
As to “Myc-tagged NGFR fragment aa 273-427 (from UniProt P08138 273-427) (domain or fragment)”, the binding entry with Flag-MDM2 is on record as “no binding”.
Consider “NGFR stably expressed in H460 cells (from UniProt P08138 29-427) (receptor)”, for which the binding result in assay [12] and in assay [13] was “binds” throughout.
For “endogenous NGFR (SK-MEL-147 cells) (from UniProt P08138 29-427) (receptor)”, the binding result in assay [14] and in assay [15] was “binds” throughout.
“endogenous NGFR (SK-N-SH cells) (from UniProt P08138 29-427) (receptor)”: the binding result in assay [16] and in assay [17] was “binds” each time.
